The source of these data is paper PMC4980431, “Ctf4 Is a Hub in the Eukaryotic Replisome that Links Multiple CIP-Box Proteins to the CMG Helicase” (Molecular Cell, 2016).

Chains of the proteins cited; added tags and fusions are not shown.
UniProt P21951: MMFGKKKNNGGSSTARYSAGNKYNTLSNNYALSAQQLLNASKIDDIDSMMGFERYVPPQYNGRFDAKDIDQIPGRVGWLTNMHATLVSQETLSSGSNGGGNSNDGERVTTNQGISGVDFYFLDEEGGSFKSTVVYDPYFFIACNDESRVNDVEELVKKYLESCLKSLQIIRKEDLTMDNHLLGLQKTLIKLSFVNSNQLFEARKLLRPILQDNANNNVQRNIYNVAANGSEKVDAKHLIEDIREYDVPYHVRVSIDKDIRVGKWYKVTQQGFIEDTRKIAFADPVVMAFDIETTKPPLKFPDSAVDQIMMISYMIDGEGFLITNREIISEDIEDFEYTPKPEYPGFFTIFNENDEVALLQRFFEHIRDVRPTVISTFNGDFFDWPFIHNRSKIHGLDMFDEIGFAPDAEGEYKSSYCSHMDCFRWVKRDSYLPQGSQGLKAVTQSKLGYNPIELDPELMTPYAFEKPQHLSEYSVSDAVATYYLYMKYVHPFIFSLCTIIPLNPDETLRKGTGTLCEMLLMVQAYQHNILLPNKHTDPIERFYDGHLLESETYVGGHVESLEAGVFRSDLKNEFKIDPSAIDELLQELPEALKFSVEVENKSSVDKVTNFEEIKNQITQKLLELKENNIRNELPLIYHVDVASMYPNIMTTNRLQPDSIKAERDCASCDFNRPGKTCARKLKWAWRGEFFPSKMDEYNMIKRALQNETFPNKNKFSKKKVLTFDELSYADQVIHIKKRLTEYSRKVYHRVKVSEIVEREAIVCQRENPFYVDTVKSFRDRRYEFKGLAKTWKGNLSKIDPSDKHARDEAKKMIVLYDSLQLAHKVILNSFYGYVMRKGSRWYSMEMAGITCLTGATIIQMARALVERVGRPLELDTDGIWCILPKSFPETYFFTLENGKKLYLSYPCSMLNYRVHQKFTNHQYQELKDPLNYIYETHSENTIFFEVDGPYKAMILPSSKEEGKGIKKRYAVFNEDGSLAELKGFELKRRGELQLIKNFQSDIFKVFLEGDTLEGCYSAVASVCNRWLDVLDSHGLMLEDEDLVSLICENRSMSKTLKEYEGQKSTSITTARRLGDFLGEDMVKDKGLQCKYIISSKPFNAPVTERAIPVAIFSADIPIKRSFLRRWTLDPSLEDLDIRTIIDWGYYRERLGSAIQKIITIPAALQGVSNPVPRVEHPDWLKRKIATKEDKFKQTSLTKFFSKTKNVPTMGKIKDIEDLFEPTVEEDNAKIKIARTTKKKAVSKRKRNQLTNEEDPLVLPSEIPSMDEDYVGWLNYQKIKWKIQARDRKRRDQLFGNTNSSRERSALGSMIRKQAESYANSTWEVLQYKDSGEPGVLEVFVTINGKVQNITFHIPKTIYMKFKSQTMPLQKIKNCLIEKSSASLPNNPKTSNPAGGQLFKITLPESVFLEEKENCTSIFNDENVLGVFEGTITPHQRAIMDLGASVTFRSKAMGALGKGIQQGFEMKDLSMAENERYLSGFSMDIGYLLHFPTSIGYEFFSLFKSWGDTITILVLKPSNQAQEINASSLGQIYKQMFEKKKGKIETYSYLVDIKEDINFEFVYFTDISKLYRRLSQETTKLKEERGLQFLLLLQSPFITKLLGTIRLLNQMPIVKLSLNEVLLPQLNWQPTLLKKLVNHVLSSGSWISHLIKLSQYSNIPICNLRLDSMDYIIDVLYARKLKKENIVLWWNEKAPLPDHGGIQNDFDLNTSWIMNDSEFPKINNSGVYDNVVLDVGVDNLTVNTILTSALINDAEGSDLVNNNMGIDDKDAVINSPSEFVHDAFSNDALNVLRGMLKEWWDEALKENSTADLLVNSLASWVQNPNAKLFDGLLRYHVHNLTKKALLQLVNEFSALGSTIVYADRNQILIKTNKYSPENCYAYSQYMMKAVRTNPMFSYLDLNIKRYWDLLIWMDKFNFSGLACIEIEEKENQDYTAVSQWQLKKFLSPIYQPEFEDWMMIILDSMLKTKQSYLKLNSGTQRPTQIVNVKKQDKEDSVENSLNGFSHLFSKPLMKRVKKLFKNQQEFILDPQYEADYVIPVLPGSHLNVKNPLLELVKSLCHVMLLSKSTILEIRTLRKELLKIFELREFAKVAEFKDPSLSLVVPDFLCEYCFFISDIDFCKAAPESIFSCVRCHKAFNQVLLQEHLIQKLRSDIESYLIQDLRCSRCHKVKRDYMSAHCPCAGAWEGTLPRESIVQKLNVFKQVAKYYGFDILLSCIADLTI

These are yes or no findings as the source states them, for the method shown. For some of these results: In cells and extracts the contact can be indirect. Some binding calls cover weakened binding; strength is not graded here.

Assay [1] has as its target T1, Ctf4 461–927 (budding yeast) (UniProt Q01454).
T1 sequence: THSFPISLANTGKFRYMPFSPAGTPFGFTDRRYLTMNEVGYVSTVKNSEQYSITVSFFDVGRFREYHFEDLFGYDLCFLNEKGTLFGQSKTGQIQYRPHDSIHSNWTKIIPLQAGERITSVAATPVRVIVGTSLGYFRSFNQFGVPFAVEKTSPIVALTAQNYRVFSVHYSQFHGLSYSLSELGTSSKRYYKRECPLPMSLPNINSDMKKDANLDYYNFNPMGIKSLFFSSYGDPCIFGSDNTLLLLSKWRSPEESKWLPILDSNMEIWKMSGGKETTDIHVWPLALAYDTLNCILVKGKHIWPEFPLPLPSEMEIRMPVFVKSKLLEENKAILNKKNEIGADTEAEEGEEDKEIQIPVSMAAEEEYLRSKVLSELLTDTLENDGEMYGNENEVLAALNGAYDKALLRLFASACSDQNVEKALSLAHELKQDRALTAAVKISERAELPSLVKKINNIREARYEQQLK
The experiment in a line: two-hybrid; directed yeast two-hybrid assay, fusions to the activation and DNA-binding domains of Gal4.

Assay [2] concerns the target T2, Ctf4-3E (two-hybrid) (budding yeast) (UniProt Q01454).
T2 sequence: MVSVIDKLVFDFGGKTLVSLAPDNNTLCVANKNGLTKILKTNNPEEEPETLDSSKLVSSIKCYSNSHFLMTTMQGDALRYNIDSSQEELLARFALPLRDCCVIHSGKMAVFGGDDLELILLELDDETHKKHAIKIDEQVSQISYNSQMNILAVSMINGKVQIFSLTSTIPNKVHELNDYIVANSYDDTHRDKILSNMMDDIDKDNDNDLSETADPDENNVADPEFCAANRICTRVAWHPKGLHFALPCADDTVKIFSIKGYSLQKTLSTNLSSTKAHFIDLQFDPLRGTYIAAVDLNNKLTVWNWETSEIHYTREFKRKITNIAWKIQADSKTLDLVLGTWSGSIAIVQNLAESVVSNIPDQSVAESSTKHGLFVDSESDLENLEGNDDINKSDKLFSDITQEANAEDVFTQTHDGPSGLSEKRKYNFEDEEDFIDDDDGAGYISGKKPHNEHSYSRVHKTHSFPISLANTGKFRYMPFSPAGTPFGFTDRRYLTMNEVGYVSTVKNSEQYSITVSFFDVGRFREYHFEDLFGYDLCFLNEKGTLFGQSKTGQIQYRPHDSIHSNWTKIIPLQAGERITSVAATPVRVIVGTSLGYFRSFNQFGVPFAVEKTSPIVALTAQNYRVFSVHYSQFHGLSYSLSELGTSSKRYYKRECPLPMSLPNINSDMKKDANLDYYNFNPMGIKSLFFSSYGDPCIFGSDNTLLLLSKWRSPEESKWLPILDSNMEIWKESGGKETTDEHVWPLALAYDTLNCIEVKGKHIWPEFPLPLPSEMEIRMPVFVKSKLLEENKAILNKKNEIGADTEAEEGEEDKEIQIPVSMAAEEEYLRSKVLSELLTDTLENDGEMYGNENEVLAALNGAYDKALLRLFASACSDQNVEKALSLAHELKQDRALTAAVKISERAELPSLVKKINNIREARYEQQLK
Described as above.

Assay [3] has as its target T3, Ctf4-4E (two-hybrid) (budding yeast) (UniProt Q01454).
T3 sequence: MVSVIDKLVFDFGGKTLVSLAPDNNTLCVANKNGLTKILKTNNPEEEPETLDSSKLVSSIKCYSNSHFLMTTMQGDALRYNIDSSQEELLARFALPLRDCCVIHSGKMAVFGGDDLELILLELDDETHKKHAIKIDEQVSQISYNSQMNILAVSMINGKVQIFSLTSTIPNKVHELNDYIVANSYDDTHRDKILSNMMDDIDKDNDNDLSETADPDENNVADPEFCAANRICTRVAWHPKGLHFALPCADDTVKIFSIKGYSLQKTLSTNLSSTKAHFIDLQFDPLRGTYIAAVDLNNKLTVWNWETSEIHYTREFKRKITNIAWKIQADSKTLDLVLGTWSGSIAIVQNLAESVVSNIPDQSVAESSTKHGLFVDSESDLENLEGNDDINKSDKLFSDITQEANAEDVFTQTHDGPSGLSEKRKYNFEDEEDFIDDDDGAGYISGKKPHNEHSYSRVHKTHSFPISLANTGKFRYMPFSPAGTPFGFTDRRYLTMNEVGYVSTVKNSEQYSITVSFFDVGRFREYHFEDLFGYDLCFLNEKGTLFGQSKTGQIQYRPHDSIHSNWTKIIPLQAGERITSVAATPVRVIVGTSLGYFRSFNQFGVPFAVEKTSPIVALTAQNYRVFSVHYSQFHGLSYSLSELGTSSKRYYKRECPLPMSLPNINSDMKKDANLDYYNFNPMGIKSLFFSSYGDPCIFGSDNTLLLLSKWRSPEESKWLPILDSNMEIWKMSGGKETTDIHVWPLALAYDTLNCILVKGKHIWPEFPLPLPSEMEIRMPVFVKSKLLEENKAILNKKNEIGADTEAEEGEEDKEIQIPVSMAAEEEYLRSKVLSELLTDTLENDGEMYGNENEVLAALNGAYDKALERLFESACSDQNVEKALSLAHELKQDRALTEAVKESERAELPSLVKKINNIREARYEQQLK
The assay is described as above.

Assay [4] deals with Pol2 catalytic subunit of Pol ε (two-hybrid) (budding yeast) (UniProt P21951). The description is as above.
The target of assay [5] is T4, Psf1 subunit of GINS (two-hybrid) (budding yeast) (UniProt Q12488).
T4 sequence: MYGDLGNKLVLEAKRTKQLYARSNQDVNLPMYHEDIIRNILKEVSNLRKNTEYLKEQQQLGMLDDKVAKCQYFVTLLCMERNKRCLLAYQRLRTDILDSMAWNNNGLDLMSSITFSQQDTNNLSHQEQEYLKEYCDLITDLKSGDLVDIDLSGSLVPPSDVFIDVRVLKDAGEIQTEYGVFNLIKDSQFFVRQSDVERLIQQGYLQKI
The description is as above.

Assay [6] addresses T5, wild-type Ctf4 (two-hybrid, limits not stated) (budding yeast) (UniProt Q01454).
T5 sequence: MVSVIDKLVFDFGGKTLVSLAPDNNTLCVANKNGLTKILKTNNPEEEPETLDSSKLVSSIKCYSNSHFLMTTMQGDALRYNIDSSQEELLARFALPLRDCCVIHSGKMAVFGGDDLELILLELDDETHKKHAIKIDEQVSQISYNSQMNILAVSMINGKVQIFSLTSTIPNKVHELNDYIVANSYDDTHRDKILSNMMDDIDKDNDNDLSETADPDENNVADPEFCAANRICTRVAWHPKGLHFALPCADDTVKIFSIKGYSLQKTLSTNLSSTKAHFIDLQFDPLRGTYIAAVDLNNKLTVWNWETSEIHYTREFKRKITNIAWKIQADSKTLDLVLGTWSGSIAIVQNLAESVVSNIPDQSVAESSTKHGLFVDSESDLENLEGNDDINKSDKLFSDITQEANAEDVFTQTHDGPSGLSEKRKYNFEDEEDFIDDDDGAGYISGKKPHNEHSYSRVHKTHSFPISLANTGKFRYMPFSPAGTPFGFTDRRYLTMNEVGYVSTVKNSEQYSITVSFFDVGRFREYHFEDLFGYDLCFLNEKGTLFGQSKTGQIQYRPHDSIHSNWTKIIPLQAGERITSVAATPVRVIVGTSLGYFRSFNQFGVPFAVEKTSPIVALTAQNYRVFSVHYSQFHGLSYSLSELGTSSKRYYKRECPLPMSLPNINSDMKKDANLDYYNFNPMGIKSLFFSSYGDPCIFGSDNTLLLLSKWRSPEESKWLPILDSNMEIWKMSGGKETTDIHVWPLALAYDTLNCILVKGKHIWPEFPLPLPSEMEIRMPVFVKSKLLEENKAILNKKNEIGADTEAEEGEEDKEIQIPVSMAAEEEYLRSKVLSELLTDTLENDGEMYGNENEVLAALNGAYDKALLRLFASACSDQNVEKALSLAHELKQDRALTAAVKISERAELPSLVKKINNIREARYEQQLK
The assay is described as above.

The target in assay [7] is T6, Tof2-ProteinA (budding yeast) (UniProt Q02208).
T6 sequence: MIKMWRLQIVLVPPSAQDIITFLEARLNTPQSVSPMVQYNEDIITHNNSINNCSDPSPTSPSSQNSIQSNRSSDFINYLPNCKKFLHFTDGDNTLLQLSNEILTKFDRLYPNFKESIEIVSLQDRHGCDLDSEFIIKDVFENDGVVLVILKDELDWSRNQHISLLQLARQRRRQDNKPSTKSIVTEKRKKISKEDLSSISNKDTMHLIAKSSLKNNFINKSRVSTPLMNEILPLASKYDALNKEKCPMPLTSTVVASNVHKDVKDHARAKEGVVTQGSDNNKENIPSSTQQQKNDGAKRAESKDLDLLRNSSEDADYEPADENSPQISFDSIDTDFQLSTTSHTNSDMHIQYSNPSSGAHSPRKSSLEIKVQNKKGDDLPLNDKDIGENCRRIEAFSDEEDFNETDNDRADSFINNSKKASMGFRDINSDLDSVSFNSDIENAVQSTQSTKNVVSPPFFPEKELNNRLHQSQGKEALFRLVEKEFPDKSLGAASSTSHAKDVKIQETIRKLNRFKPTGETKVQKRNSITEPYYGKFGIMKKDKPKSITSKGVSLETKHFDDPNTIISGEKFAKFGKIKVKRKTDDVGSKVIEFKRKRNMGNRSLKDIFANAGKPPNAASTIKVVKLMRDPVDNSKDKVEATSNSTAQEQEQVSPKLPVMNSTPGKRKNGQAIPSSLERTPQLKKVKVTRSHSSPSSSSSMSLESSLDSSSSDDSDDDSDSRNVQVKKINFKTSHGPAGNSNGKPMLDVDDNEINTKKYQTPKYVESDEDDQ
Nature of the assay: co-IP; Tof2-ProteinA isolated on IgG beads from extracts of G1-phase and S phase cells; immunoblotting. (In general: In western blotting, separated proteins are transferred to a membrane and probed.)

B1: Dpb2 (two-hybrid) (protein, UniProt P24482 1-689)
chain: MFGSGNVLPVKIQPPLLRPLAYRVLSRKYGLSIKSDGLSALAEFVGTNIGANWRQGPATIKFLEQFAAVWKQQERGLFIDQSGVKEVIQEMKEREKVEWSHEHPIQHEENILGRTDDDENNSDDEMPIAADSSLQNVSLSSPMRQPTERDEYKQPFKPESSKALDWRDYFKVINASQQQRFSYNPHKMQFIFVPNKKQNGLGGIAGFLPDIEDKVQMFLTRYYLTNDRVMRNENFQNSDMFNPLSSMVSLQNELSNTNRQQQSSSMSITPIKNLLGRDAQNFLLLGLLNKNFKGNWSLEDPSGSVEIDISQTIPTQGHYYVPGCMVLVEGIYYSVGNKFHVTSMTLPPGERREITLETIGNLDLLGIHGISNNNFIARLDKDLKIRLHLLEKELTDHKFVILGANLFLDDLKIMTALSKILQKLNDDPPTLLIWQGSFTSVPVFASMSSRNISSSTQFKNNFDALATLLSRFDNLTENTTMIFIPGPNDLWGSMVSLGASGTLPQDPIPSAFTKKINKVCKNVVWSSNPTRIAYLSQEIVIFRDDLSGRFKRHRLEFPFNESEDVYTENDNMMSKDTDIVPIDELVKEPDQLPQKVQETRKLVKTILDQGHLSPFLDSLRPISWDLDHTLTLCPIPSTMVLCDTTSAQFDLTYNGCKVINPGSFIHNRRARYMEYVPSSKKTIQEEIYI
With B1, the binding result in assay [1] was “binds”; in assay [2], “no binding”; in assay [3], “binds”; in assay [4], “binds”; in assay [5] it was “binds”; in assay [6], “binds”.

B2: Ctf4 (endogenous, yeast cell extracts) (protein, UniProt Q01454 1-927)
chain: MVSVIDKLVFDFGGKTLVSLAPDNNTLCVANKNGLTKILKTNNPEEEPETLDSSKLVSSIKCYSNSHFLMTTMQGDALRYNIDSSQEELLARFALPLRDCCVIHSGKMAVFGGDDLELILLELDDETHKKHAIKIDEQVSQISYNSQMNILAVSMINGKVQIFSLTSTIPNKVHELNDYIVANSYDDTHRDKILSNMMDDIDKDNDNDLSETADPDENNVADPEFCAANRICTRVAWHPKGLHFALPCADDTVKIFSIKGYSLQKTLSTNLSSTKAHFIDLQFDPLRGTYIAAVDLNNKLTVWNWETSEIHYTREFKRKITNIAWKIQADSKTLDLVLGTWSGSIAIVQNLAESVVSNIPDQSVAESSTKHGLFVDSESDLENLEGNDDINKSDKLFSDITQEANAEDVFTQTHDGPSGLSEKRKYNFEDEEDFIDDDDGAGYISGKKPHNEHSYSRVHKTHSFPISLANTGKFRYMPFSPAGTPFGFTDRRYLTMNEVGYVSTVKNSEQYSITVSFFDVGRFREYHFEDLFGYDLCFLNEKGTLFGQSKTGQIQYRPHDSIHSNWTKIIPLQAGERITSVAATPVRVIVGTSLGYFRSFNQFGVPFAVEKTSPIVALTAQNYRVFSVHYSQFHGLSYSLSELGTSSKRYYKRECPLPMSLPNINSDMKKDANLDYYNFNPMGIKSLFFSSYGDPCIFGSDNTLLLLSKWRSPEESKWLPILDSNMEIWKMSGGKETTDIHVWPLALAYDTLNCILVKGKHIWPEFPLPLPSEMEIRMPVFVKSKLLEENKAILNKKNEIGADTEAEEGEEDKEIQIPVSMAAEEEYLRSKVLSELLTDTLENDGEMYGNENEVLAALNGAYDKALLRLFASACSDQNVEKALSLAHELKQDRALTAAVKISERAELPSLVKKINNIREARYEQQLK
On to B2, for which the binding entry in assay [7] is given as “binds”.
